Results taken from article PMC3217859.
Results are given in words; binding and its absence hold for the method and conditions named. In cells and extracts the contact can be indirect. Some results given as binding are weak or reduced against the parent protein; the word gives no strength. For some assays here: Tags and fused reporters may be left off the sequences shown.

Protein sequences, listed by entry. Tags and fused reporters are not part of them.
UniProt Q9BUL8: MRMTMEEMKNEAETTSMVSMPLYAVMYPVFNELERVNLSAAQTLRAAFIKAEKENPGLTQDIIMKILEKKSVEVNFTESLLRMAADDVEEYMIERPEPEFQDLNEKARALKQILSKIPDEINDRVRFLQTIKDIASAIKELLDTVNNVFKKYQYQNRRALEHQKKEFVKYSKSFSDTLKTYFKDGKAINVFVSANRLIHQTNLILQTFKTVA

T1: HA-tagged wild-type striatin (human) (UniProt O43815)
T1 sequence: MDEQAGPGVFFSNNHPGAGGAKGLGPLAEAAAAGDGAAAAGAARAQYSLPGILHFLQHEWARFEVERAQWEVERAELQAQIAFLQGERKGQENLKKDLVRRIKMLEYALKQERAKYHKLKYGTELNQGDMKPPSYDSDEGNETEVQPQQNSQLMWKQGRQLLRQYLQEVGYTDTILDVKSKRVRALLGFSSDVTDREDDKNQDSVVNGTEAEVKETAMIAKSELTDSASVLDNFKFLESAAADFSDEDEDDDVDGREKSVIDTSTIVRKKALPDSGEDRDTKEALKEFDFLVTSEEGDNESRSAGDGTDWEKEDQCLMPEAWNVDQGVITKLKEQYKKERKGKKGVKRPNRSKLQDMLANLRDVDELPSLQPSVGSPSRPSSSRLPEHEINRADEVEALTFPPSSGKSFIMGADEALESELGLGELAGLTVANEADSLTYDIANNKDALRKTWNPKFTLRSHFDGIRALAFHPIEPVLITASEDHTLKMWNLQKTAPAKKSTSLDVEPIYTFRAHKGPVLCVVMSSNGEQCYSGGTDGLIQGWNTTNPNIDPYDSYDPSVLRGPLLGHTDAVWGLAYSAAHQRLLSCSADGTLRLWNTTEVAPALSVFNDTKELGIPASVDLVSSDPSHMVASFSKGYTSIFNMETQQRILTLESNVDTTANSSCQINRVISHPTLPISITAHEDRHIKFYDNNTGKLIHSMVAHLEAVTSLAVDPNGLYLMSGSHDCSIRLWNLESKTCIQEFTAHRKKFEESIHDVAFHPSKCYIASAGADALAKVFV

T2: HA-tagged Δ(53-66) striatin (human) (UniProt O43815)
T2 sequence: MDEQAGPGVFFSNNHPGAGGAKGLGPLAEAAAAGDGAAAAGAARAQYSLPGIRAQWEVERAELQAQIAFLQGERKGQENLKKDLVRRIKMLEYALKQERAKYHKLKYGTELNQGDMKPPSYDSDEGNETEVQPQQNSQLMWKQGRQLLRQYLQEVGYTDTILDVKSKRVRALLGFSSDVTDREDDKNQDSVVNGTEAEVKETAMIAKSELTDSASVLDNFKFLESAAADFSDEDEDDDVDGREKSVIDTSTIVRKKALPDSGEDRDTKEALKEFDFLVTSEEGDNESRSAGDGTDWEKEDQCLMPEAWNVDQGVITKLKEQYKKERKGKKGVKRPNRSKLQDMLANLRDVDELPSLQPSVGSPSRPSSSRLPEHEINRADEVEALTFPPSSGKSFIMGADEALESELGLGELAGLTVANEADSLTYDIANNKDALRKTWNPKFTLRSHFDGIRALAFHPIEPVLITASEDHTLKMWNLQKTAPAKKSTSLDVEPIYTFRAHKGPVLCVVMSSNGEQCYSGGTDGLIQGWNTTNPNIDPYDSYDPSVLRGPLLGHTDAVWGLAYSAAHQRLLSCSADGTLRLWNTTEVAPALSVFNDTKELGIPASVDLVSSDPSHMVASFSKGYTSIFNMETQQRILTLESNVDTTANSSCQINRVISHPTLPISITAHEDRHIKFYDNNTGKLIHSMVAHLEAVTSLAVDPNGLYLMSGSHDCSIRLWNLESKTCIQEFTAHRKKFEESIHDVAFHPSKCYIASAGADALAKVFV

T3: HA-tagged Δ(70-116) striatin (human) (UniProt O43815)
T3 sequence: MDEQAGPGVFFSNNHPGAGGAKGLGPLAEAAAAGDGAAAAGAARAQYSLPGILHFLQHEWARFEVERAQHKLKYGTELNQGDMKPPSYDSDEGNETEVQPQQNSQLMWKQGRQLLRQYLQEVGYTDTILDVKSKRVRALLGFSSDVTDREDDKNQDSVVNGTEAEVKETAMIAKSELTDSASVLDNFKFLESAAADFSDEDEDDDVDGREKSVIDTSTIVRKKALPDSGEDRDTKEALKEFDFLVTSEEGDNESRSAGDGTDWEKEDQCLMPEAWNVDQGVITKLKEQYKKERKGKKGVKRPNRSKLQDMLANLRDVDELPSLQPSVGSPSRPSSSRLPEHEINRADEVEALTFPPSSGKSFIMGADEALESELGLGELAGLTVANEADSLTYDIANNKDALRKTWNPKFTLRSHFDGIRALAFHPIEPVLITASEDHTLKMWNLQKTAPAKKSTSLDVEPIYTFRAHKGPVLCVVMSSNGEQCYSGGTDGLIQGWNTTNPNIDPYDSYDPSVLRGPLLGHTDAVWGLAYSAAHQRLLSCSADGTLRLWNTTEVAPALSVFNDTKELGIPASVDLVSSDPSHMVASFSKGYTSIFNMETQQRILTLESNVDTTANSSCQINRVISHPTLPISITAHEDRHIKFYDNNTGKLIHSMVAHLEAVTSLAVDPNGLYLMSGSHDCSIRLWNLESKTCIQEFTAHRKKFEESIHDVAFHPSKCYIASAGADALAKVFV


How the values were obtained:
[1] = biological target: FLAG-tagged cerebral cavernous malformation 3 (CCM3) protein (human) (UniProt Q9BUL8); test: co-IP; anti-FLAG (M2, protein G-Sepharose) immunoprecipitates of lysates of HEK293 cells stably expressing FLAG-CCM3 and transfected with HA-striatins; HA immunoblot, normalised to expression of the HA-constructs in the lysates
[2] = biological target: T1, HA-tagged wild-type striatin (human); test: co-IP; anti-HA immunoprecipitates (12CA5 with protein A-Sepharose, or F7 anti-HA-agarose when probing for Mst3 or Mst4; 1.5 h, 4°C) of lysates (1% Nonidet P-40, 0.135 M NaCl, 10% glycerol, 20 mM Tris pH 8.0) of HEK293 cells transfected with HA-striatins; endogenous partners by immunoblot, partner/HA-striatin ratio by chemilumimager against wild type; 50 mM NaF and 100 nM okadaic acid in the lysis buffer in the phosphorylation experiments
[3] = biological target: HA-tagged Δ(148-166) striatin (human) (UniProt O43815); test: as above
[4] = biological target: T2, HA-tagged Δ(53-66) striatin (human); test: as above
[5] = biological target: T3, HA-tagged Δ(70-116) striatin (human); test: as above

binding [1] | binding [2] | binding [3] | binding [4] | binding [5] | Binder
binds |  |  |  |  | HA-tagged wild-type striatin (protein, UniProt O43815 1-780) MDEQAGPGVFFSNNHPGAGGAKGLGPLAEAAAAGDGAAAAGAARAQYSLPGILHFLQHEWARFEVERAQWEVERAELQAQIAFLQGERKGQENLKKDLVRRIKMLEYALKQERAKYHKLKYGTELNQGDMKPPSYDSDEGNETEVQPQQNSQLMWKQGRQLLRQYLQEVGYTDTILDVKSKRVRALLGFSSDVTDREDDKNQDSVVNGTEAEVKETAMIAKSELTDSASVLDNFKFLESAAADFSDEDEDDDVDGREKSVIDTSTIVRKKALPDSGEDRDTKEALKEFDFLVTSEEGDNESRSAGDGTDWEKEDQCLMPEAWNVDQGVITKLKEQYKKERKGKKGVKRPNRSKLQDMLANLRDVDELPSLQPSVGSPSRPSSSRLPEHEINRADEVEALTFPPSSGKSFIMGADEALESELGLGELAGLTVANEADSLTYDIANNKDALRKTWNPKFTLRSHFDGIRALAFHPIEPVLITASEDHTLKMWNLQKTAPAKKSTSLDVEPIYTFRAHKGPVLCVVMSSNGEQCYSGGTDGLIQGWNTTNPNIDPYDSYDPSVLRGPLLGHTDAVWGLAYSAAHQRLLSCSADGTLRLWNTTEVAPALSVFNDTKELGIPASVDLVSSDPSHMVASFSKGYTSIFNMETQQRILTLESNVDTTANSSCQINRVISHPTLPISITAHEDRHIKFYDNNTGKLIHSMVAHLEAVTSLAVDPNGLYLMSGSHDCSIRLWNLESKTCIQEFTAHRKKFEESIHDVAFHPSKCYIASAGADALAKVFV
 | binds | binds | no binding | no binding | zinedin (protein, UniProt Q9NRL3 1-753) MMEERAAAAVAAAASSCRPLGSGAGPGPTGAAPVSAPAPGPGPAGKGGGGGGSPGPTAGPEPLSLPGILHFIQHEWARFEAEKARWEAERAELQAQVAFLQGERKGQENLKTDLVRRIKMLEYALKQERAKYHKLKFGTDLNQGEKKADVSEQVSNGPVESVTLENSPLVWKEGRQLLRQYLEEVGYTDTILDMRSKRVRSLLGRSLELNGAVEPSEGAPRAPPGPAGLSGGESLLVKQIEEQIKRNAAGKDGKERLGGSVLGQIPFLQNCEDEDSDEDDELDSVQHKKQRVKLPSKALVPEMEDEDEEDDSEDAINEFDFLGSGEDGEGAPDPRRCTVDGSPHELESRRVKLQGILADLRDVDGLPPKVTGPPPGTPQPRPHEDVFIMDTIGGGEVSLGDLADLTVTNDNDLSCDLSDSKDAFKKTWNPKFTLRSHYDGIRSLAFHHSQSALLTASEDGTLKLWNLQKAVTAKKNAALDVEPIHAFRAHRGPVLAVAMGSNSEYCYSGGADACIHSWKIPDLSMDPYDGYDPSVLSHVLEGHGDAVWGLAFSPTSQRLASCSADGTVRIWDPSSSSPACLCTFPTASEHGVPTSVAFTSTEPAHIVASFRSGDTVLYDMEVGSALLTLESRGSSGPTQINQVVSHPNQPLTITAHDDRGIRFLDNRTGKPVHSMVAHLDAVTCLAVDPNGAFLMSGSHDCSLRLWSLDNKTCVQEITAHRKKHEEAIHAVACHPSKALIASAGADALAKVFV
